“And” between values parts separate entries of the source, which are not always exact repeats. Equal values may be shown once. The shares of active, inactive and inconclusive entries below differ from those in the screen. For some of these results: Potencies beside an inconclusive call are fits to weak or partial responses and may not hold up. More than one record can exist for a structure, and the calls need not agree. The source made the active and inactive calls. Unless noted, calls follow the shape of the dose curve; as a rule, active = well fitted curve in the direction sought with a large enough effect in the repeat runs; inconclusive = weak or mixed curves; inactive = no such curve, though single readings can be large; an effect the other way counts as inactive or inconclusive.
Tests used:
[1] = qHTS RealTime-Glo MT Cell Viability Assay in HepG2 cells - 16 hour (AID 1224885); settings: RealTime-Glo luminescence; series mostly up to 76.8 µM; also: nearly all actives have a fitted effect of over 50% in size
Outline: (§1)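 Luminescence read-out: viable HepG2 cells reduce a prosubstrate to a NanoLuc substrate, giving a signal proportional to live cell number. Reads taken at 0, 8, 16, 24, 32 and 40 h of compound exposure at 37 C.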

[2] = qHTS RealTime-Glo MT Cell Viability Assay in HEK293 cells - 24 hour (AID 1224886); settings: RealTime-Glo luminescence; series mostly up to 76.8 µM; also: nearly all actives have a fitted effect of over 50% in size
Outline: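 Nonlytic real-time viability readout: viable cells convert prosubstrate to NanoLuc substrate, giving luminescence proportional to live cell number. HEK293, 600 cells/well, compound added after 5 h, continuous culture at 37 C.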

[3] = qHTS RealTime-Glo MT Cell Viability Assay in HEK293 cells - 8 hour (AID 1224887); settings: RealTime-Glo luminescence; series mostly up to 76.8 µM; also: nearly all actives have a fitted effect of over 50% in size
Outline: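 Cells were seeded together with NanoLuc luciferase and a prosubstrate that viable cells reduce to a luciferase substrate. After a 5 h incubation at 37 C/5% CO2, compounds were added and luminescence was measured repeatedly during 40 h of treatment.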

[4] = qHTS assay to identify small molecule antagonists of the androgen receptor (AR) signaling pathway using the MDA cell line in the presence of 0.5 nM R1881 - cell viability counter screen (AID 1259242); settings: MDA-kb2 viability, CellTiter-Fluor protease fluorescence, 16 h; series mostly up to 92.4 µM; also: nearly all actives have a fitted effect of over 45% in size
Outline: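 Counter screen for cytotoxicity run in the same wells as the AR antagonist reporter screen: MDA-kb2 cells were treated 16 hr with test compounds and 0.5 nM R1881, then live-cell protease activity was measured by fluorescence.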

[5] = molecular target: Androgen receptor (Homo sapiens) (UniProt P10275); assay: qHTS assay to identify small molecule antagonists of the androgen receptor (AR) signaling pathway using the MDA cell line in the presence of 0.5 nM R1881 (AID 1259243); settings: MDA-kb2 MMTV-luciferase, R1881 0.5 nM, 16 h; series mostly up to 92.4 µM; also: nearly all actives have a fitted effect of over 50% in size
Outline: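 Luciferase luminescence is the read-out: compounds are tested for suppressing 0.5 nM R1881-driven MMTV reporter activity in MDA-kb2 cells after 16 hr at 37C.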

[6] = qHTS assay to identify small molecule HDAC inhibitors - cell viability counter screen (AID 1259365); settings: HCT-116 viability, CellTiter-Glo ATP luminescence, 2 h; series mostly up to 92.4 µM; also: nearly all actives have a fitted effect of over 50% in size
Outline: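 Cytotoxicity was gauged in wild-type HCT-116 cells after a brief 2hr treatment with DMSO-dissolved compounds at 37C and 5% CO2, using CellTiter-Glo luminescence developed for 30min at room temperature.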

[7] = qHTS assay to identify small molecule antagonists of the sonic hedgehog signaling (Shh) pathway - cell viability counter screen (AID 1259367); settings: NIH/3T3 Gli1-Luc viability, CellTiter-Fluor, 24 h; series mostly up to 92.4 µM; also: nearly all actives have a fitted effect of over 55% in size
Outline: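 Using CellTiter-Fluor, viability of Gli1-Luc reporter 3T3 cells is read by fluorescence in the wells used for the Shh luciferase assay. Treatment lasts 23 hr with conditioned medium, then reagent 1 hr at 37C.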

[8] = qHTS assay to identify small molecule agonists of the sonic hedgehog signaling (Shh) pathway (AID 1259368; calls by dose curve; also: nearly all actives have a fitted effect of over 15% in size); settings: NIH/3T3 Gli1-Luc reporter, luciferase, 24 h; series mostly up to 92.4 µM
Outline: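 3T3Gli1-Luc (NIH/3T3 clone, stable Gli1-Luc); 4 hr pre-incubation, then cpd in DMSO 24 hr, 37 C/5% CO2; luciferase reagent 30 min RT; luminescence.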

[9] = qHTS assay to identify small molecule agonists of the androgen receptor (AR) signaling pathway in the presence of an antagonist - cell viability counter screen (AID 1259379); settings: MDA-kb2 viability, CellTiter-Fluor, 16 h; series mostly up to 92.4 µM; also: nearly all actives have a fitted effect of over 25% in size
Outline: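 Cells: MDA-kb2 (MMTV-luc, AR and GR elements), 3,000/well, 5 hr settle. Added: nilutamide 3.0uM final, then compounds (15 conc.). Incubation: 16 hr, 37C, no CO2. Read-out: CellTiter-Fluor, 1 hr, fluorescence.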

[10] = qHTS RealTime-Glo MT Cell Viability Assay in HepG2 cells - 0 hour (AID 1224889); settings: RealTime-Glo luminescence; series mostly up to 76.8 µM; also: nearly all actives have a fitted effect of over 50% in size
Outline: as §1

[11] = qHTS assay to identify small molecule antagonists of the estrogen receptor alpha (ER-alpha) signaling pathway using the BG1 cell line in the presence of 0.1 nM 17-beta-estradiol - cell viability counter screen (AID 1259241); settings: VM7Luc4E2 (BG1) viability, CellTiter-Fluor protease, 22 h, 0.1 nM estradiol agonist added; series mostly up to 92.4 µM; also: nearly all actives have a fitted effect of over 40% in size
Outline: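 Viability in VM7Luc4E2 cells after 22 hr compound exposure under 0.1 nM 17beta-estradiol stimulation, by CellTiter-Fluor.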

[12] = qHTS assay to identify small molecule agonists of the sonic hedgehog signaling (Shh) pathway - cell viability counter screen (AID 1259366); settings: NIH/3T3 Gli1-Luc viability, CellTiter-Fluor, 24 h; series mostly up to 92.4 µM; also: nearly all actives have a fitted effect of over 50% in size
Outline: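 Stable Gli1-Luc NIH/3T3 clone, 2,000 cells/well. Compound exposure 24hr at 37C. Read-out: CellTiter-Fluor fluorescence.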

[13] = molecular target: Estrogen receptor beta (Homo sapiens) (UniProt Q92731); assay: qHTS assay to identify small molecule antagonists of the estrogen receptor beta (ER-beta) signaling pathway (AID 1259378; active = well fitted inhibition curve with a large enough effect in the signal ratio in the repeat runs, not every such curve was filed as active; inconclusive = weak or mixed curves, or effect the other way; inactive = no such curve, though single readings can be large or run the other way; the % refers to the signal ratio; as to activity, negative = inhibition: % is scaled to controls: 0 for no effect and ±100 for the full control effect); settings: ER-beta-UAS-bla HEK293T, beta-lactamase FRET ratio, 16 h; activity, negative = inhibition: at 92.4 µM (top of the series) unless noted
Outline: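 Antagonist mode: compounds added to beta-lactamase reporter HEK293T ER-beta-UAS cells stimulated with E2 (1nM final), 16 hr at 37C. LiveBLAzer B/G FRET substrate, 2 hours room temperature, fluorescence read-out.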

[14] = A CellTox Green Cytotoxicity Assay to monitor cytotoxicity in HepG2 cells - 8 hour (AID 1224890); settings: CellTox Green fluorescence; series mostly up to 76.8 µM; also: nearly all actives have a fitted effect of over 45% in size
Outline: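 Read-out is fluorescence of a cyanine dye excluded from live cells that stains DNA of dead HepG2 cells, with signal proportional to cytotoxicity. Plates were read at 0, 8, 16, 24, 32 and 40 h after compound addition.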

[15] = qHTS assay to identify small molecule antagonists of the sonic hedgehog signaling (Shh) pathway (AID 1259369; calls by dose curve; also: nearly all actives have a fitted effect of over 45% in size); settings: NIH/3T3 Gli1-Luc reporter, Shh antagonist, luminescence 24 h; series mostly up to 92.4 µM
Outline: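 3T3Gli1-Luc, conditioned-medium-stimulated, 24hr cpd, 37C/5% CO2; Gli1-driven firefly Luc luminescence after 30min RT with luciferase reagent. Cells plated 4hr before cpd.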

[16] = A CellTox Green Cytotoxicity Assay to monitor cytotoxicity in HEK293 cells - 16 hour (AID 1224888); settings: CellTox Green fluorescence; series mostly up to 76.8 µM; also: nearly all actives have a fitted effect of over 35% in size
Outline: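 Nonlytic real-time cytotoxicity: HEK293 + CellTox Green reagent plated, 5 h preincubation, pintool compound addition (23 nL in DMSO), 37 C for 40 h, fluorescence measured at successive time points.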

[17] = molecular target: Estrogen receptor beta (Homo sapiens) (UniProt Q92731); assay: qHTS assay to identify small molecule agonists of the estrogen receptor beta (ER-beta) signaling pathway (AID 1259377; active = well fitted activation curve with a large enough effect in the signal ratio in the repeat runs, not every such curve was filed as active; inconclusive = weak or mixed curves, or effect the other way; the % refers to the signal ratio); settings: ER-beta-UAS-bla HEK293T, beta-lactamase FRET ratio, 16 h; activation: at 92.4 µM (top of the series) unless noted
Outline: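 Measured by fluorescence intensity from a B/G FRET beta-lactamase substrate (2 h, room temperature) in ER-beta-UAS-bla HEK293T cells treated with DMSO-dissolved compounds for 16 hr at 37C and 5% CO2.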
Potency is read from the fitted curve at half-maximal effect; tags tell the direction and shape of the fitted curve or compound fluorescence and quenching.

Chain of UniProt Q92731 (Q92731 whole entry, looked up): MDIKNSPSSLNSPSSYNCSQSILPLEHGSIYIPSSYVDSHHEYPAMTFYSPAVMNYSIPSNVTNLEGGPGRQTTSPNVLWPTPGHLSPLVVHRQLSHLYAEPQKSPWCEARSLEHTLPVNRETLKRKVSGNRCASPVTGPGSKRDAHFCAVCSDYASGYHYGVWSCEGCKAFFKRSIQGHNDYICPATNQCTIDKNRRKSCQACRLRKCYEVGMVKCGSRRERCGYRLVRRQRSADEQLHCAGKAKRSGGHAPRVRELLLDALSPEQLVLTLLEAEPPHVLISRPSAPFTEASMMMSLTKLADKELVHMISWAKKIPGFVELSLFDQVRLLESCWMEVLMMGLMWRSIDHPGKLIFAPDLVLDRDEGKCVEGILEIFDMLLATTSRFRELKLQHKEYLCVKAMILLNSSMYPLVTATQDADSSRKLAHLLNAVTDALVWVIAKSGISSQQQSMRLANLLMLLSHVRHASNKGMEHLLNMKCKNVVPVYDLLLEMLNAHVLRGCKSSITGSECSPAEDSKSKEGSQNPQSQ
Chain of UniProt P10275 (P10275 whole entry, looked up): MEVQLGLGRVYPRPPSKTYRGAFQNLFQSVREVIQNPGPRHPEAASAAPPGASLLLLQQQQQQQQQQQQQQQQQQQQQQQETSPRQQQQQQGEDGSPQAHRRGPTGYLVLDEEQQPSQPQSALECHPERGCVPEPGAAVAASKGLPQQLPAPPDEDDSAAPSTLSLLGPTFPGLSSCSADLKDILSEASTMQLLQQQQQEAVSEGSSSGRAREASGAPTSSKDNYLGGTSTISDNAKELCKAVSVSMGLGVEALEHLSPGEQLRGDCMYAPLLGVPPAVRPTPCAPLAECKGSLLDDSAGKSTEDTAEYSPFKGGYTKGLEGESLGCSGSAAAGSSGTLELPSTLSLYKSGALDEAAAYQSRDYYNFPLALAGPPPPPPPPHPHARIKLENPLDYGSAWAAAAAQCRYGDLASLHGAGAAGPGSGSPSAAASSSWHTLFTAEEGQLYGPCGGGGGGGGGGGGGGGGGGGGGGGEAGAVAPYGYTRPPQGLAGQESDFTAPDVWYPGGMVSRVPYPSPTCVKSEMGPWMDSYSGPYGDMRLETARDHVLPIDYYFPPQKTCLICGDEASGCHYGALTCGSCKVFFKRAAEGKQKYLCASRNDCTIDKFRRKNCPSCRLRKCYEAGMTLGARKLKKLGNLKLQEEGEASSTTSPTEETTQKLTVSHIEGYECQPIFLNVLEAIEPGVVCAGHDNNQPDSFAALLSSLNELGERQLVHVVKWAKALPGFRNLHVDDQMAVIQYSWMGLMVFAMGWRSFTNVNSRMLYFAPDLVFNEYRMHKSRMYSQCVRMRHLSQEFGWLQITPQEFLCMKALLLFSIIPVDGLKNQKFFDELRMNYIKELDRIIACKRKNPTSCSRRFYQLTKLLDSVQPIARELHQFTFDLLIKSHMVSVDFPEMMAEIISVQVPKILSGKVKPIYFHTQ

Row | SMILES | Potency [1] | Potency [2] | Potency [3] | Potency [4] | Potency [5] | Potency [6] | Potency [7] | Potency [8] | Potency [9] | Potency [10] | Potency [11] | Potency [12] | activity, negative = inhibition [13] | Potency [14] | Potency [15] | Potency [13] | Potency [16] | Potency [17]
1 | CN(C)c1ccc(N)cc1 | inconclusive: 53.6 µM [cytotoxic, partial curve, poor fit] | active: 42.6 µM | active: 24 µM | inconclusive: 66.9 µM [cytotoxic, single point] | inconclusive: 75.1 µM [inhibitor, single point] | inconclusive: 29.9 µM [cytotoxic, partial curve] | inconclusive: 42.2 µM [cytotoxic, partial curve] | inconclusive: 1.68 µM [activator, partial curve] | active: 59.6 µM |  |  |  |  |  |  |  |  | 
2 | CN(C)c1ccc(C(=O)c2ccc(N(C)C)cc2)cc1 | inactive and inconclusive: 43.6 µM [cytotoxic, partial curve] | inconclusive: 5.44 µM [cytotoxic, full curve] and inconclusive: 3.47 µM [cytotoxic, full curve] | inconclusive: 24.5 µM [cytotoxic, partial curve, poor fit] | inconclusive: 54.5 µM [cytotoxic, partial curve] |  |  |  | inconclusive: 27.3 µM [activator, partial curve] | inconclusive: 38.2 µM [cytotoxic, partial curve] and inconclusive: 30.6 µM [cytotoxic, partial curve] | inactive | inconclusive: 54.5 µM [cytotoxic, partial curve, poor fit] | inactive and inconclusive: 30.6 µM [cytotoxic, partial curve] | inconclusive: -41.1% |  |  |  |  | 
3 | FC(F)C(F)(F)OCC(Cn1cncn1)c1ccc(Cl)cc1Cl (stereo not drawn) | inconclusive: 48.7 µM [cytotoxic, partial curve] | active: 21.7 µM | inconclusive: 43.4 µM [cytotoxic, partial curve] |  |  |  | inconclusive: 68.2 µM [cytotoxic] |  | inconclusive: 76.5 µM [cytotoxic, single point] |  | inconclusive: 68.2 µM [cytotoxic, partial curve, poor fit] |  |  | inconclusive: 54.6 µM [activator, single point] | inconclusive: 68.2 µM [inhibitor, single point] | inconclusive: 68.2 µM [rising, single point] |  | 
4 | CC(=O)[O][Sn]([c]1ccccc1)([c]1ccccc1)[c]1ccccc1 | inconclusive: 0.174 µM [cytotoxic, full curve, poor fit] | active: 0.0436 µM | active: 0.123 µM | active: 0.306 µM |  | active: 54.5 µM |  | inactive |  | inconclusive: 49 µM [cytotoxic, single point] | active: 0.545 µM |  |  |  |  | inconclusive: 0.969 µM [rising, full curve, poor fit] | active: 0.347 µM | inconclusive: 2.17 µM [rising, partial curve]
5 | CCc1cccc(C)c1N(C(=O)CCl)[C@@H](C)COC | inconclusive: 54.9 µM [cytotoxic, single point] | inactive | inactive |  |  |  |  |  |  |  |  |  | inconclusive: -44.7% | inconclusive: 54.9 µM [activator, single point] | inconclusive: 0.545 µM [inhibitor, single point] |  | inconclusive: 54.9 µM [activator, single point] | 
6 | C[C@H]1CCCC(=O)CCC/C=C/c2cc(O)cc(O)c2C(=O)O1 | inconclusive: 47.2 µM [cytotoxic, single point] | active: 33.4 µM and inconclusive: 12.7 µM [cytotoxic, partial curve] | inconclusive: 12.7 µM [cytotoxic, partial curve, poor fit] | inconclusive: 46.8 µM [cytotoxic, partial curve] | inconclusive: 22.4 µM [inhibitor, partial curve] |  | inconclusive: 17.8 µM [cytotoxic, partial curve] |  | active: 46.8 µM | inconclusive: 53 µM [cytotoxic, single point] | inconclusive: 46.8 µM [cytotoxic] |  |  | inactive | active: 14.8 µM |  |  | inconclusive: 46.8 µM [fluorescent, partial curve] and inconclusive: 31.7 nM [activator, full curve]
